Laboratory results reported in article PMC10726135.
The list shows a part of the results. At the low end of the ranking, values are background and their order means little. Measured with an extract: partners may take part in the binding.

target: T1, HNF4alpha2 (COS-7 nuclear extract) (UniProt P41235); experiment: protein-binding microarray; details: COS-7 nuclear extract on double-stranded Agilent 4x180k PBM; binding buffer, salt, pH and temperature not given; high values mean tight binding; double strand, one strand shown; sequences stand for … in …GCCTAGGGAGATTAGAGTATCGGTCGA
T1 sequence: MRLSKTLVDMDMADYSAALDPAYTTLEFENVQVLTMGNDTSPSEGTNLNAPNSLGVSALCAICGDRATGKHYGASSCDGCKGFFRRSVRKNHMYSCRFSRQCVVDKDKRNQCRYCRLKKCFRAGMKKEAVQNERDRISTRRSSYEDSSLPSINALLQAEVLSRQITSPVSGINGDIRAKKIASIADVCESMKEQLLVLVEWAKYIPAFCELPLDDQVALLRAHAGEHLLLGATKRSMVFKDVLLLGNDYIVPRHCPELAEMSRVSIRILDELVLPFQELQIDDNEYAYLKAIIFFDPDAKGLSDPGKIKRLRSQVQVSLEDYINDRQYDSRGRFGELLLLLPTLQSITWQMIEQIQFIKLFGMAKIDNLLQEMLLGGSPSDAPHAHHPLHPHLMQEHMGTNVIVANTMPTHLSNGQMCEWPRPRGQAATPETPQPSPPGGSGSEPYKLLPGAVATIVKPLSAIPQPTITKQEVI

Sequence | binding signal (log2 normalized intensity)
GTACCTAGGACAAAGCAAACACTCATTTCA | -1.18
TTCCGGGGGCGGTTTTTCCATTGTACTCAG | 1.47
ACACTGAGGAAAAGCTGTCTACAAACACAG | -1.06
GGGGCCTGAGGAAAGGAAGATGCACATTCC | -1.13
TATGAGAGAGAGAGAGAGGTGGGCAAAGGT | 1.53
CCTTGGGACAGCTGGCCTCATGCCTTATCT | -0.701
CTTATCTGAGGTGCCCTTACATTTTGCTCT | 1.53
ATAAGCACCCTGCTCCAGCCAGAGGCCTTA | -1.03
AGAGATCAAAGGGGAGGTGGGAAAAGAAAT | -1.2
GTCGCCGTGAGGTTATTTGCAGACTCTGTT | 1.37
CAAAACAACCACTCTTATCAGACAGGATAT | -1.05
ACCAGATCTTACTTTGAGGTGTTCTCTGGG | 0.948
TAGGTTGGAGGAGCTGAACTGTAACCTCAA | 0.872
CCAGTTCCAGGGATGTCTTTTTCTGACCCA | 2.54
GTCCCACAGGGAAAGTATGGGTCAGCCCTG | 0.783
GAAGAAGTTGCTCAGTGTTCCACAGCAAGT | -1.07
AAACAACACACCTTGCCACCCACACTGCAG | -0.991
GCGCCACATTCTGAGCCAGCACTTCGACCT | 2.29
AATGAGTGTGGGACTTGAGGTCTTATCTTT | 1.11
ATCCCTGTTGCCTCATCTGAAAAAAGCTAT | 0.599
TCTCTCTCCACCTGGAGGGACTTTGTCCCA | 5.1
TATTTGTAGCTTCAAACCAGTTATTCCAAG | 0.687
TTTCTGTAAAGCTTTATTTTGGGGCTGTAT | 0.324
AGGATGACAAAGAGCAAGTGACCCTCAGAC | 2.57

Sequence | binding signal (log2 normalized intensity)
TCAGAAAGGTCAGCGCTTTGGTAGGCTGTA | 0.762
GCAATGGCTTCACAATTCCTAGCAATTCAA | -1.18
ATGTGTTACACCTGTGTGTACTGGGCAGAT | 1.41
AATGTAAACTCCAAGGAGCAAATCCGTAAG | -1.07
TGAATTGATTGCCAAGAGGGAGGGGTCAGG | 1.18
GAGTACTTGGACTTTAACCTTTAGATTACT | 7.31
CAAACTGGGACCTGTGACACTCTGCTGCCT | -0.941
CAGCCCCATCCCCCAATACACACACACCCC | 6.31
GAAAATATTTCTCTGAACTTTGACCTATAG | 8.62
CTGAAGGCAAATTCTTAGAATTGCACTGCA | -1.13
GGAAGACTGATAAGAAAACTAGCAAGGATA | -1.24
AGAGGGACAAAATGCCCAGGATTCCTTTTT | -1.07
ACAGCTAGTCTAGACTTTGCTTTCTTGGAG | 1.24
CCGAGGCATATTTAACTTGGCAAGGGGAGG | -1.12
AGGCAGGCTGAGTCAGTTTAGTCCTGGATG | 1.02
TAGCTTTCCTGTCACAAGAGATAAAGCTCT | -1.14
AGAAGGAAAAGGCCTGACCTTTGCCCTCTG | 10.1
GACATCTGCTTCCAAAGAGCTCAACCTGTG | -1.16
AAAGTCTGGCAAATGAAATGTAATCAGCAA | -1.19
AGAGGTAACTCCCCCTTCATCTGGGACGTG | 2.09
CTTCCAGATCTGGATATGCCTGGGGTTCCA | 0.819
CTGTGGTACAGGCAGTGACTGGACCACGAT | -0.442
AAATACCCTCTTTAGGGTAGCCTGGGTTAA | 0.885
AATAACAAACAAGAAAGTTGAGGTGAATAC | -0.906

Sequence | binding signal (log2 normalized intensity)
GAGTTGGAGAAGAGCAAAGATCATCTGGTG | 1.22
AGTGAAGGTTCAGTGAAGTAGTGTGTATGA | 2.27
GGCCTCCACACATTGCCACACTATTTACAC | -0.361
GGACTTCTCTGCCCTCTTCCCTCTACCTCT | 1.76
TGCTCTCAGCACACTCTGGTACCATGGATG | 0.503
ATCTAGGTGAGGGATGAGGACTTTGATCAG | 6.01
CTAGCAAGTGCCAAGATGCTAAGGCAAGAT | -1.14
TGACCTTTGCTCCAGTTCCCAATAATTTCC | 4.46
GGCCCAGCTGGTTTGAAGAATGTGGTCTGG | 1.06
AATCACACTAATCTGTCAGAAAACCCACGC | -0.674
AAATGAAGCAACACTTTCTGACCTTTAAGC | 4.52
AAGGGCAAGTGACTGATAAGGCTAAGTGGA | -1.17
CACTCTACTCTCTTTGGAGTGCTCCCGCCT | 0.514
GCCAAGTTGAGGAGTTTGTACTTTATCCTA | 2.93
AGCTGAGCAGAGAGGACCCTGTGATCATAT | 0.616
CCCTAGGAAGGATAAGAGCAAGAAACAGCA | -1.14
GCAGCCAGTTCTGGACGGCAGATGCAGAGT | -1.07
GGAAGGGTATGCATGGAATGCAGGAGATCC | -0.852
AACATCATAGAGTGTACTTATGCAGACCTG | 0.451
GAAGACCAAAGTTCTTATTTGCTGAGGAAG | -0.462
TGTTCACTCTAGGAACTTGTCTAAAAACAT | -1.18
CCCCCAGGTAGCTGCCAATGCAAATCCCAG | 1.35
TCAAAGGGCAAAGGAATAAAATAGCTGCCT | -1.08
AAGATCAGTATAGTTAGGGCCTTGCAGGGG | 0.175

Sequence | binding signal (log2 normalized intensity)
TGCGCTTAGTCCATGACGCAAGCGAGTAAG | -0.852
TGGGCTCCTGCCTTGGAGAAGTGAACTTTG | 4.34
ACATAAGCAGAGCCAAGTGGTCATTACCTC | -1.11
GTTATCTCTCAACTCAGTGAGGGCTATTGA | 0.946
ACCCAGACGAGCTGTCACTGGCTGCTGCTC | -1.22
CACATACACACACACACACACACATTGCAG | -1.05
CTTCCTCTTCTTCACCGGAGATTTACATTC | 1.17
TAAGATATTGGTAAGTTAAGTAACTCTCCA | -1.14
CAACCATCAAAGGTCACTTTACAGATAAAG | 2.21
CGGGCGGGGGGTGGGGTGGAAGCTATGCCT | -1.02
CCCTGCACCCTACCCCCATACTTTATTTAG | 2.49
ACGATGTGTAAACAAGTGAGCATGGCTGTG | 0.636
TGCAGTGTCCATGGTGACCATGTGATGTGA | 1.51
TCACCACTTCAAGCTTGGTATGCTTAAGTG | -0.618
TGATTTATTCAGGCAATGTCACGTTTATTT | 1.32
TCTCTCGCGAGAGCCGAAGTCTCTCGCCGA | -1.01
GAGCAGGGTATCAGTTGAACAGAATAGAGG | -0.996
TGTTCTCTGTACGGAAGGCCGGGCCTCAAG | -1.09
AGTCTGAGGCTGCTCTCTGTCCCTGCACCC | 0.835
TAAGGGTAGAGACCTTTGTTTTGTTTTCAA | 1.35
GTTGTAGCAGTTCACACTCCCACCAGCATG | -1.12
